From PubChem BioAssay AID1508624 (National Center for Advancing Translational Sciences (NCATS), 2021)
Among all 48,000 compounds or so, about 120 (0.25%) were called active. Roughly 4% stayed inconclusive and do not appear here. The call rests on the fitted dose curve; in most records, active means well fitted activation curve with a large enough effect; inconclusive means small, poorly fitted or top-dose-only effect, or another doubt; inactive means no such curve, though single readings can be large or run the other way. The list shows a part of the results.

Assay: Primary qHTS for Identification of Small Molecule Activators of Huntingtin-Antisense Promoter Activity; further: nearly all actives have a fitted effect of over 55% in size
Settings: HEK293 HTT-AS promoter firefly luciferase reporter, 24 h; series mostly up to 57.5 µM; activity change, positive = activation: at the top concentration
Method in brief: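 HEK293 Fluc reporter, 2,500 cells/well, 24 h pre-culture; cpds up to 57.5 uM final, 24 h 37 degrees C; Dual-Glo, 10 min RT; normalized vehicle = 0%, zero RLU = -100%.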

Activity change, positive = activation, inactive:
Cc1ccc(C)c(N2CCN(S(=O)(=O)c3ccc4oc(=O)c5ncn(C)c5c4c3)CC2)c1 -10.3%, COc1ccc(NC(=O)CCN2CCN(c3cccc(Cl)c3)CC2)cc1 -13%, Cc1ccc(S(=O)(=O)c2nnn3c2nc(NCc2ccc(F)cc2)c2sccc23)cc1 -11%, CCCNC(=O)c1ccc2c(c1)N(Cc1cccc(C)c1)C(=O)c1ccccc1S2 -41.3%, CCc1ccccc1NC(=O)c1cc(S(=O)(=O)N(CC)c2ccccc2)ccc1F -35.7%, COc1ccccc1NC(=O)CCCOc1cc(=O)n(C)c2ccccc12 22.5%, CC1CCN(c2nc3c(S(=O)(=O)c4ccccc4)nnn3c3ccsc23)CC1 -13%, Oc1c(I)cc(I)c2cccnc12 -4.33%, COc1ccc(-c2nc(C)c(CCNC(=O)C(=O)Nc3cccc(F)c3)s2)cc1OC 16.9%, O=C(CC1N=C2c3ccccc3N=C(SCC(=O)Nc3cccc(C(F)(F)F)c3)N2C1=O)NCc1cccs1 (centres undefined) -20%, COc1ccc(CCNC(=O)c2nn(-c3ccc(C)cc3)c(=O)c3c2c2ccccc2n3C)cc1OC 1.7%, Cc1ccc(C)c(Cn2c(=O)n(Cc3ccccc3)c(=O)c3c(C)c(C)sc32)c1 7.97%, CCOC(=O)CCn1nc(-c2ccc(C)cc2)c2ccccc2c1=O -5.61% [at 11.5 µM, percent change from vehicle, -100% = no light], CCc1ccc(CN(Cc2ccco2)C(=O)c2ccccc2Cl)cc1 -7.35%, CCn1cc(C(=O)O)c(=O)c2cnc(N3CCNCC3)nc21 4.36%, COc1ccc(NC(=O)CSc2nccn2Cc2ccc3c(c2)OCO3)cc1 -11.2%, COc1ccc(C)cc1NC(=O)C(=O)NCC(c1cccnc1)N1CCc2ccccc21 (centres undefined) -27.4%, Cc1ccc(-n2c3c(cc(C(=O)Nc4ccccc4C(N)=O)c2=O)C(=O)CC(C)(C)C3)cc1 -22.5%, CN(C)CCNC(=O)CN1C(=O)COc2ccc(S(=O)(=O)N3CCCC3)cc21 -3.66%, Cc1cc(C)c(NC(=O)CSc2ccc(-c3ccccn3)nn2)c(C)c1 -7.44%, COc1ccc(C2=Nc3ccccc3NC(c3cccs3)=N2)cc1 -4.36%, O=C1CC(c2ccccc2)Sc2ccccc2N1Cc1ccc(F)cc1 (centres undefined) -39%, COc1cccc(CCNC(=O)c2c(O)nc3c(C)cccn3c2=O)c1 -13.8%, CC(Sc1nnc2ccc3ccccc3n12)C(=O)Nc1ccc(Cl)cc1 (centres undefined) 1.9%, COc1ccccc1NC(=O)Cn1c(SCC(=O)Nc2ccc(F)cc2)nc2ccccc21 -9.85%, Cc1nc2ccn(Cc3ccccc3)c(=O)c2cc1C(=O)N1CCN(c2ccc(F)cc2)CC1 -11%, NCCS(=O)(=O)O, COc1cc2nc(N3CCN(C(=O)c4ccco4)CC3)nc(N)c2cc1OC, COCCc1nn2c(=O)cc(COC(=O)C(c3ccccc3)c3ccccc3)nc2s1 -14.7%, CCOC(=O)c1cnc2cc(-c3ccc(OCC)cc3)nn2c1-c1ccccc1 -9.7%, CCCCS(=O)(=O)N[C@@H](Cc1ccc(OCCCCC2CCNCC2)cc1)C(=O)O -4.58%, Cc1ccc(S(=O)(=O)N2CCN(C(=O)c3cc(-c4ccc(Br)cc4)n[nH]3)CC2)c(C)c1 -39.6%, CCN(CC)c1ccc(NC(=O)c2cccn2-c2nnc(N3CCCCC3)s2)c(C)c1 -29.7%, Cc1c(Cl)cccc1-n1ncc(C(=O)N2CCN(c3ncccn3)CC2)c1C1CCN(C(=O)OC(C)(C)C)CC1 -0.9%, Cc1ccc(NC(=O)C(Cc2ccccc2)NS(=O)(=O)c2ccc3c(c2)c(=O)n(C)c(=O)n3C)c(C)c1 (centres undefined) -10.8%, CCCOc1ccc(CNC(=O)CCCn2ncn3c(cc4sc(CC)cc43)c2=O)cc1 -68%, COc1ccccc1CNC(=O)c1c[nH]c2ccc(S(=O)(=O)Nc3cc(C)cc(C)c3)cc2c1=O -39.2%, CCNS(=O)(=O)c1ccc(NC(=O)CSc2nc(-c3ccco3)cc(C(F)(F)F)n2)cc1 -42.5%, COc1cccc(NC(=O)CCC(=O)N2Cc3ccccc3Oc3ncccc32)c1 -9.96%, Cc1ccc(CNC(=O)CSc2nc3ccsc3c(=O)n2Cc2ccccc2F)cc1 -9.84%, Cc1ccc(-n2cc(-c3ccccc3)c3c(N4CCCCC4)ncnc32)cc1 -15.7%, CC(C)OC(=O)c1cccc(NC(=O)Cn2nnc3sc4c(c3c2=O)CCCC4)c1 -15.7%, Cc1cccc(Nc2nnc(-c3ccc(C)c(S(=O)(=O)N4CCCCC4)c3)c3ccccc23)c1 -9.97%, Cc1ccc(NC(=O)C2CCCN(S(=O)(=O)c3ccc4[nH]c(=O)ccc4c3)C2)cc1Cl (centres undefined) -24.6%, COc1ccc2c(c1)c1c(c(=O)n(CCc3ccccc3)c(=O)n1Cc1cccc(Cl)c1)n2C -8.42%, O=C(NCc1cccc(Cl)c1)c1c2c(nc3ccccc13)C(=O)N(C1CCCCC1)C2 -12.2%, CC(=O)Nc1cccc(NC(=O)c2cc3c(=O)n4cccc(C)c4nc3n2C)c1 0.419%, CCCn1cc(S(=O)(=O)c2ccc(C)cc2)c(=O)c2cc(F)c(N3CCCC3)cc21 -2.37%, COc1cc(NC(=O)c2ccc(C)c(Cl)c2)ccc1NC(=O)c1cc2ccccc2o1 14.1%, CCOc1ccccc1Nc1ncnc2c1cnn2-c1ccc(C)cc1 -32.8%, CC1CN(C(=O)N2CCC(C(=O)NCCCc3ccccc3)CC2)c2cc(Cl)ccc2O1 (centres undefined) -31.5%, CCOc1ccccc1Nc1nc2ccccc2c2nncn12 -6.52%, COc1cccc2c1cc1c(=O)n(CC(=O)N3CCN(c4cccc(C)c4C)CC3)nc(C)n12 -2.71%, COc1ccc(CCNC(=O)CCc2c(C)nc3c4c(C)cc(C)nc4nn3c2C)cc1OC -7.11%, CCOc1ccc(CNC(=O)c2ccc3oc(=O)n(Cc4ccccc4)c3c2)cc1 -26.2%, CC(=O)c1c(C)oc2ccc(N(C(=O)Oc3ccccc3)S(=O)(=O)c3ccc(Cl)cc3)cc12 11.9% [at 11.5 µM, percent change from vehicle, -100% = no light], Cc1ccc(CNC(=O)C2CCN(S(=O)(=O)N3CCCCC3)CC2)cc1 -16.2%, Cc1ccc(Cn2nnc3c(=O)[nH]c(C4CCN(C(=O)Cc5ccccc5F)CC4)nc32)cc1 -34.2%, CCc1cccc(NS(=O)(=O)c2c(C)[nH]c(=O)[nH]c2=O)c1 -2.28%
